Laboratory results reported in PubChem BioAssay AID180 (DTP/NCI, 2004).
Some entries of the source have several records that differ or are many. This list holds those alone. There may be further records. Results that share an entry are repeats across runs, samples, wells, individuals or studies. Starred links: 1 amine or outer side, 2 acyl side, 3 side chain; linkers in the order of their positions; H or OH if unused. Positions of bridges follow the written chain, without caps; N, C: chain ends. Non-standard residues stand in square brackets, D forms with d. Residues, ends and D or L forms follow the SMILES beside them. Chains are numbered I, II in the order given. Actinocin(9to1) = Cc1c2oc3c(C)ccc(C(=O)[*:1])c3nc-2c(C(=O)[*:2])c(N)c1=O; aThr = C[C@H](O)[C@H](N)C(=O)O; NMeV = CN[C@H](C(=O)O)C(C)C; Sar = CNCC(=O)O

System: BDF1 mice, Adenocarcinoma 755 s.c., tumor weight T/C
Test: NCI In Vivo Anticancer Drug Screen. Data for tumor model Adenocarcinoma 755 (subcutaneous) in B6D2F1 (BDF1) mice
Settings: endpoint: mean tumor weight, higher = larger tumour
How it was run: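 Values express treated (T) relative to vehicle-dosed control (C) animals, based on survival or tumour size measured after compound treatment of mice bearing a transplanted tumour.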

CS(=O)(=O)OCCC(=O)NCCCNC(=O)CCOS(C)(=O)=O
T/C (dose: 14.0 mg/kg/injection, schedule: Q01DX011 (ip), vehicle: methylcellulose (MC)): 61 % of control and 106 % of control
T/C (dose: 56.0 mg/kg/injection, schedule: Q01DX011 (ip), vehicle: methylcellulose (MC)): 11 % of control and 100 % of control
T/C (dose: 112.0 mg/kg/injection, schedule: Q01DX011 (ip), vehicle: methylcellulose (MC)): 6 % of control and 70 % of control

CC(C)n1cnc2c(Cl)ncnc21
T/C (dose: 31.0 mg/kg/injection, schedule: Q01DX011 (ip), vehicle: carboxymethylcellulose (CMC)): 10 % of control, 21 % of control, 78 % of control

O=S(=O)(O)c1cccnc1
T/C (dose: 149.45 mg/kg/injection, schedule: Q01DX011 (ip), vehicle: carboxymethylcellulose (CMC)): 84 % of control and 119 % of control

CCOC(N)=O
T/C (dose: 250.5 mg/kg/injection, schedule: Q01DX011 (ip), vehicle: carboxymethylcellulose (CMC)): 39 % of control, 53 % of control, 69 % of control
T/C (dose: 334.0 mg/kg/injection, schedule: Q01DX011 (ip), vehicle: carboxymethylcellulose (CMC)): 26 % of control and 87 % of control
T/C (dose: 410.0 mg/kg/injection, schedule: Q01DX011 (ip), vehicle: carboxymethylcellulose (CMC)): 13 % of control, 28 % of control, 77 % of control

C1CN1P1(N2CC2)=NP(N2CC2)(N2CC2)=NP(N2CC2)(N2CC2)=NP(N2CC2)(N2CC2)=N1
T/C (dose: 3.0 mg/kg/injection, schedule: Q01DX011 (oral), vehicle: carboxymethylcellulose (CMC)): 85 % of control and 112 % of control
T/C (dose: 6.0 mg/kg/injection, schedule: Q01DX011 (oral), vehicle: carboxymethylcellulose (CMC)): 39 % of control and 85 % of control
T/C (dose: 12.0 mg/kg/injection, schedule: Q01DX011 (oral), vehicle: carboxymethylcellulose (CMC)): 22 % of control and 115 % of control
T/C (dose: 25.0 mg/kg/injection, schedule: Q01DX011 (oral), vehicle: carboxymethylcellulose (CMC)): 25 % of control and 72 % of control
T/C (dose: 50.0 mg/kg/injection, schedule: Q01DX011 (oral), vehicle: carboxymethylcellulose (CMC)): 8 % of control and 48 % of control

O=C1CN(/N=C\c2ccc([N+](=O)[O-])o2)C(=O)N1
T/C (dose: 32.1 mg/kg/injection, schedule: Q01DX011 (ip), vehicle: carboxymethylcellulose (CMC)): 59 % of control and 103 % of control

COCCCNS(=O)(=O)c1ncnc2nc[nH]c12
T/C (dose: 5.0 mg/kg/injection, schedule: Q01DX011 (ip), vehicle: saline): 44 % of control and 90 % of control
T/C (dose: 6.0 mg/kg/injection, schedule: Q01DX011 (ip), vehicle: carboxymethylcellulose (CMC)): 52 % of control and 95 % of control
T/C (dose: 10.0 mg/kg/injection, schedule: Q01DX011 (ip), vehicle: saline): 45 % of control and 79 % of control

CN(Cc1cnc2nc(NCNC(=O)C3=C(O)[C@@]4(O)C(=O)C5=C(O)c6c(O)cccc6[C@@](C)(O)[C@H]5C[C@H]4[C@H](N(C)C)C3=O)nc(N)c2n1)c1ccc(C(=O)NC(CCC(=O)O)C(=O)O)cc1 (some centres undefined)
T/C (dose: 12.0 mg/kg/injection, schedule: Q01DX011 (ip), vehicle: saline): 29 % of control and 63 % of control

Cc1c2oc3c(C)ccc(C(=O)N[C@@H]4C(=O)N[C@H](C(C)C)C(=O)N5CCC[C@H]5C(=O)N(C)CC(=O)N(C)[C@@H](C(C)C)C(=O)O[C@H]4C)c3nc-2c(C(=O)N[C@@H]2C(=O)N[C@H](C(C)C)C(=O)N3CCC[C@H]3C(=O)N(C)CC(=O)N(C)[C@@H](C(C)C)C(=O)O[C@H]2C)c(N)c1=O (I: [aThr][dV]P[Sar][NMeV] / II: [aThr][dV]P[Sar][NMeV]; ester I:1-I:C, II:1-II:C; linker I:N-II:N via Actinocin(9to1))
T/C (dose: 0.02 mg/kg/injection, schedule: Q01DX011 (ip), vehicle: carboxymethylcellulose (CMC)): 67 % of control and 102 % of control
T/C (dose: 32.0 micrograms/kg/injection, schedule: Q01DX011 (ip), vehicle: carboxymethylcellulose (CMC)): 18 % of control, 46 % of control, 58 % of control

CCC(=O)c1cc2c(cc1CC)C(C)(C)CCC2(C)C
T/C (dose: 50.0 mg/kg/injection, schedule: Q01DX011 (ip), vehicle: carboxymethylcellulose (CMC)): 57 % of control and 115 % of control
T/C (dose: 200.0 mg/kg/injection, schedule: Q01DX011 (ip), vehicle: carboxymethylcellulose (CMC)): 26 % of control and 66 % of control

CCNc1nncs1
T/C (dose: 45.5 mg/kg/injection, schedule: Q01DX011 (ip), vehicle: carboxymethylcellulose (CMC)): 53 % of control and 110 % of control
T/C (dose: 113.8 mg/kg/injection, schedule: Q01DX011 (ip), vehicle: carboxymethylcellulose (CMC)): 32 % of control and 112 % of control

CCN(CC)CCOc1ccc(/C=N/Nc2nc3c(c(=O)n(C)c(=O)n3C)n2C)cc1
T/C (dose: 120.0 mg/kg/injection, schedule: Q01DX011 (ip), vehicle: carboxymethylcellulose (CMC)): 84 % of control and 121 % of control

CCCCCCOP(=O)(N1CC1C)N1CC1C (centres undefined)
T/C (dose: 25.0 mg/kg/injection, schedule: Q01DX011 (ip), vehicle: saline): 53 % of control and 108 % of control
T/C (dose: 50.0 mg/kg/injection, schedule: Q01DX011 (ip), vehicle: saline): 40 % of control, 44 % of control, 72 % of control

Cc1ccc(N2CCN(CCCN3CCN(c4ccc(Cl)cc4)CC3)CC2)cc1
T/C (dose: 3.1 mg/kg/injection, schedule: Q01DX011 (ip), vehicle: methylcellulose (MC)): 26 % of control and 86 % of control
T/C (dose: 6.25 mg/kg/injection, schedule: Q01DX011 (ip), vehicle: methylcellulose (MC)): 18 % of control, 38 % of control, 81 % of control

O=c1[nH]cc(N(CCCl)CCCl)c(=O)[nH]1
T/C (dose: 0.84 mg/kg/injection, schedule: Q01DX011 (ip), vehicle: carboxymethylcellulose (CMC)): 32 % of control, 34 % of control, 79 % of control

CCN(CC)CCNc1ccc(C)c2sc3ccccc3c(=O)c12
T/C (dose: 69.0 mg/kg/injection, schedule: Q01DX011 (ip), vehicle: carboxymethylcellulose (CMC)): 27 % of control and 75 % of control

NC(=O)N(CCCl)N=O
T/C (dose: 0.45 mg/kg/injection, schedule: Q01DX011 (ip), vehicle: methylcellulose (MC)): 46 % of control and 104 % of control

O=CCC(O)C(O)C(O)CO (centres undefined)
T/C (dose: 250.0 mg/kg/injection, schedule: Q01DX011 (ip), vehicle: carboxymethylcellulose (CMC)): 55 % of control and 122 % of control
T/C (dose: 500.0 mg/kg/injection, schedule: Q01DX011 (ip), vehicle: carboxymethylcellulose (CMC)): 36 % of control and 99 % of control
T/C (dose: 1000.0 mg/kg/injection, schedule: Q01DX011 (ip), vehicle: carboxymethylcellulose (CMC)): 41 % of control and 167 % of control

O=P1(N(CCCl)CCCl)NCCCO1 (centres undefined)
T/C (dose: 15.33 mg/kg/injection, schedule: Q01DX011 (ip), vehicle: carboxymethylcellulose (CMC)): 13 % of control and 68 % of control

Cn1cnc([N+](=O)[O-])c1Sc1ncnc2nc[nH]c12
T/C (dose: 1.25 mg/kg/injection, schedule: Q01DX011 (ip), vehicle: methylcellulose (MC)): 43 % of control and 69 % of control

O=C(O)c1cccc2c3c(cc([N+](=O)[O-])c12)CCCC3
T/C (dose: 0.75 mg/kg/injection, schedule: Q01DX011 (ip), vehicle: carboxymethylcellulose (CMC)): 51 % of control and 101 % of control

NC(C=O)C(O)C(O)C(O)CO (centres undefined)
T/C (dose: 125.0 mg/kg/injection, schedule: Q01DX011 (ip), vehicle: carboxymethylcellulose (CMC)): 84 % of control and 122 % of control

CCCCOP(=O)(N1CC1C)N1CC1C (centres undefined)
T/C (dose: 1.0 mg/kg/injection, schedule: Q01DX011 (ip), vehicle: saline): 71 % of control, 76 % of control, 98 % of control
T/C (dose: 16.0 mg/kg/injection, schedule: Q01DX011 (ip), vehicle: saline): 32 % of control and 101 % of control

O=C(O)CC(O)(CC(=O)O)C(=O)O.[Ga]
T/C (dose: 2.5 mg/kg/injection, schedule: Q01DX011 (ip), vehicle: carboxymethylcellulose (CMC)): 12 % of control and 44 % of control
T/C (dose: 5.0 mg/kg/injection, schedule: Q01DX011 (ip), vehicle: carboxymethylcellulose (CMC)): 9 % of control and 35 % of control

C[C@]12CCC(=O)C=C1CC[C@H]1[C@@H]3CC[C@](O)(C(=O)CF)[C@@]3(C)C[C@H](O)[C@@]12F
T/C (dose: 14.0 mg/kg/injection, schedule: Q01DX011 (sc), vehicle: steriod suspending solution): 24 % of control and 56 % of control

CC(CNC(=O)CCOS(C)(=O)=O)NC(=O)CCOS(C)(=O)=O (centres undefined)
T/C (dose: 56.0 mg/kg/injection, schedule: Q01DX011 (ip), vehicle: carboxymethylcellulose (CMC)): 18 % of control, 23 % of control, 55 % of control

CO[C@H](C(=O)[C@@H](O)[C@@H](C)O)[C@@H]1Cc2cc3cc(OC4CC(OC5CC(O)C(O)C(C)O5)C(O)C(C)O4)c(C)c(O)c3c(O)c2C(=O)[C@H]1OC1CC(OC2CC(OC3CC(C)(O)C(O)C(C)O3)C(O)C(C)O2)C(O)C(C)O1 (some centres undefined)
T/C (dose: 0.5 mg/kg/injection, schedule: Q01DX011 (ip), vehicle: water): 19 % of control and 47 % of control

CC(=O)[C@@]1(O)[C@H](C)C[C@H]2[C@@H]3C=C(C)C4=Cc5c(cnn5-c5ccccc5)C[C@]4(C)[C@H]3[C@@H](O)C[C@@]21C
T/C (dose: 0.1 mg/kg/injection, schedule: Q01DX011 (sc), vehicle: steriod suspending solution): 15 % of control and 41 % of control

NC1(C(=O)O)CCCC1
T/C (dose: 17.8 mg/kg/injection, schedule: Q01DX011 (ip), vehicle: carboxymethylcellulose (CMC)): 45 % of control and 72 % of control
T/C (dose: 26.25 mg/kg/injection, schedule: Q01DX011 (ip), vehicle: carboxymethylcellulose (CMC)): 15 % of control and 81 % of control
